# Data taken from the supplement of paper PMC11876631.
# Numbering of substitutions follows the chain as printed. Names and notes keep the numbering of the source. ± gives the standard deviation of the averaged measurements. Laboratory Escherichia coli strains with one amino-acid change in an essential protein, pooled on minimal glucose agar with carbenicillin or gentamicin at twice the control MIC (plus kanamycin and chloramphenicol for the plasmids), 48 h. Fold change of barcode share against drug-free plates; higher = less susceptible. Active = above 20 in both replicates (the paper's putatively resistant). '<' = one read or none on drug, '>' = one read or none on a drug-free plate. Shares are relative, so most strains fall below 1 when a few take over. Listed are strains with at least 15 reads on both drug-free plates, and hits; most hits rest on fewer reference reads. Replicate rank correlation about 0.5. Edits are read from barcodes.
# B1: serB V71D (protein)
# chain: MPNITWCDLPEDVSLWPGLPLSLSGDEVMPLDYHAGRSGWLLYGRGLDKQRLTQYQSKLGAAMVIVAAWCDEDYQVIRLAGSLTARATRLAHEAQLDVAPLGKIPHLRTPGLLVMDMDSTAIQIECIDEIAKLAGTGEMVAEVTERAMRGELDFTASLRSRVATLKGADANILQQVRENLPLMPGLTQLVLKLETLGWKVAIASGGFTFFAEYLRDKLRLTAVVANELEIMDGKFTGNVIGDIVDAQYKAKTLTRLAQEYEIPLAQTVAIGDGANDLPMIKAAGLGIAYHAKPKVNEKAEVTIRHADLMGVFCILSGSLNQK
# B2: serB F210W (protein)
# chain: B1 chain with D71V, F210W
# B3: serB F210P (protein)
# chain: B1 chain with D71V, F210P
# B4: serB I314Q (protein)
# chain: B1 chain with D71V, I314Q
# B5: serB F210Q (protein)
# chain: B1 chain with D71V, F210Q
# B6: serB M309W (protein)
# chain: B1 chain with D71V, M309W
# B7: serB M309D (protein)
# chain: B1 chain with D71V, M309D
# B8: serB I314A (protein)
# chain: B1 chain with D71V, I314A
# B9: serB M309P (protein)
# chain: B1 chain with D71V, M309P
# B10: serB F210D (protein)
# chain: B1 chain with D71V, F210D
# B11: serB M309Q (protein)
# chain: B1 chain with D71V, M309Q
# B12: serB M309A (protein)
# chain: B1 chain with D71V, M309A
# B13: serB F210A (protein)
# chain: B1 chain with D71V, F210A
# B14: accD V121A (protein)
# chain: MSWIERIKSNITPTRKASIPEGVWTKCDSCGQVLYRAELERNLEVCPKCDHHMRMTARNRLHSLLDEGSLVELGSELEPKDVLKFRDSKKYKDRLASAQKETGEKDALVVMKGTLYGMPVAAAAFEFAFMGGSMGSVVGARFVRAVEQALEDNCPLICFSASGGARMQEALMSLMQMAKTSAALAKMQERGLPYISVLTDPTMGGVSASFAMLGDLNIAEPKALIGFAGPRVIEQTVREKLPPGFQRSEFLIEKGAIDMIVRRPEMRLKLASILAKLMNLPAPNPEAPREGVVVPPVPDQEPEA
# Molecular target: Escherichia coli (laboratory strain)
# Assay: barcode share on antibiotic plates over drug-free plates; higher = less susceptible
# Procedure: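 A pool of E. coli strains, each edited to carry one amino-acid change in an essential protein, was grown for 48 h on minimal glucose agar with or without antibiotic; strain barcodes were sequenced; mean of two replicates.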
# [1] = antibiotic: carbenicillin, 2× MIC (3.1 µg/mL)
# [2] = antibiotic: gentamicin, 2× MIC (MIC 0.45 µg/mL)
Protein,fold change of barcode share [1],fold change of barcode share [2]
B1,0.549 ± 0.29,< 0.0078
B2,0.751 ± 0.069,0.0127 ± 0.0083
B3,0.513 ± 0.044,0.0114 ± 0.0068
B4,0.371 ± 0.0078,< 0.0152
B5,3.19 ± 1.9,0.0258 ± 0.016
B6,0.671 ± 0.11,0.00833 ± 0.0046
B7,1.37 ± 0.6,0.062 ± 0.072
B8,0.228 ± 0.19,< 0.00774
B9,2.78 ± 0.48,
B10,1.17 ± 0.093,0.0264 ± 0.015
B11,0.684 ± 0.24,0.00747 ± 0.0054
B12,0.534 ± 0.049,0.0185 ± 0.0042
B13,0.42 ± 0.17,0.00681 ± 0.0058
B14,0.54 ± 0.14,< 0.00476
